Measured values from the supplement of paper PMC3334620.
Over roughly 33,000 sequences, “E-score (-0.5 to 0.5)” has its median near -0.041; the highest 2% begin near 0.37. The list shows a part of the results.

The sequences below were run against T1, Ecm22 (UniProt Q05958) (assay: PBM E-score (8-mer binding enrichment) (E-score (-0.5 to 0.5)); higher = stronger / more preferred TF binding; most listed sequences are background and not binding sites). Details: protein concentration: 200 nM; construct: GST-full length.
T1 sequence: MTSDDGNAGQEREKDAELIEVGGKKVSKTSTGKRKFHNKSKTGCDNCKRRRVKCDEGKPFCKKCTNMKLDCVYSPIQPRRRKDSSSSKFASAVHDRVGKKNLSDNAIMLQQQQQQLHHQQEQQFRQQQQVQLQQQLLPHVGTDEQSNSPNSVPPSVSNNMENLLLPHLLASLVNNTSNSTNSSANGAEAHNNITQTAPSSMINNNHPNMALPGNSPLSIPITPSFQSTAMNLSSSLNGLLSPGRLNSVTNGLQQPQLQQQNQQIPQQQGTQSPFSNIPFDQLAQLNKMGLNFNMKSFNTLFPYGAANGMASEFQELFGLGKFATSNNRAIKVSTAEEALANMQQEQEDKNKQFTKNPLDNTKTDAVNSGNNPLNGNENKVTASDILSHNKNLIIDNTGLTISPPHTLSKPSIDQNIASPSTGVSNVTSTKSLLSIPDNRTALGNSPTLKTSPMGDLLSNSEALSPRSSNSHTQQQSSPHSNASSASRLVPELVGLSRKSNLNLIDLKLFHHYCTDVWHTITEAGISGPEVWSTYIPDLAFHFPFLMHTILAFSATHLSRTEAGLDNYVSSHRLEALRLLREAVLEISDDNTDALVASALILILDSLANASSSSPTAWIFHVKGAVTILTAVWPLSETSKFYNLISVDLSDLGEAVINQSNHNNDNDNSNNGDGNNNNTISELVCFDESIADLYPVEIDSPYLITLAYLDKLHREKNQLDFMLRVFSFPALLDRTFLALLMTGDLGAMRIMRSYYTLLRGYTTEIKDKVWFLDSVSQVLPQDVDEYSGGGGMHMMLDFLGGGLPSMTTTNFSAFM
Method in brief: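 Universal all-10-mer Agilent arrays, double-stranded by primer extension on fresh or once-stripped slides, were probed with about 100-200 nM GST-tagged yeast transcription factors made by PURExpress. Fluorescent anti-GST detected bound protein, and masliner normalised the scans. E-scores from the Universal PBM Analysis Suite were given to each ungapped eight-base word pooled with its reverse complement.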

| Sequence | PBM E-score |
| --- | --- |
| CCAGGCTC | -0.096 |
| GCCAGGTA | -0.0152 |
| AAGGGCTA | -0.189 |
| CGAGGATC | 0.23 |
| CCTGGGAG | -0.267 |
| GGGTGACC | -0.191 |
| CAAAACAA | -0.34 |
| GACATTCC | -0.0859 |
| CACTCATG | -0.207 |
| ACGCACAG | 0.0346 |
| CTTGCACC | -0.0766 |
| CCGCCCAC | -0.0401 |
| AGGCGCTA | -0.112 |
| CACCGTTA | 0.0997 |
| AGGCTAAA | -0.111 |
| AAATATTG | 0.102 |
| CCGGCAAG | -0.0541 |
| GTCTATGA | -0.0211 |
| GGCGACAC | -0.00378 |
| CGTCTCGA | 0.122 |
| AAGGATCC | -0.155 |
| AATGATTA | -0.0356 |
| AGTTCATC | -0.237 |
| AAGGATGT | -0.19 |
| GGCGGGTA | -0.0663 |

| Sequence | PBM E-score |
| --- | --- |
| CAGTTGGC | -0.247 |
| ACGCGATA | 0.182 |
| GGCCATTA | -0.168 |
| CGTGTACC | 0.132 |
| CACATACG | 0.335 |
| GTTGCCAA | 0.0517 |
| AATATCGG | 0.191 |
| CGGTCTGA | -0.0653 |
| AATCGCAG | -0.0371 |
| CGAGGAAC | 0.348 |
| ATTCTGGA | -0.0488 |
| ACTATTAA | 0.00323 |
| AGAAATGC | -0.0506 |
| AAGCAGCA | -0.0456 |
| ATTAGTCA | 0.00238 |
| GTGCCCCA | -0.209 |
| AATTTCTA | 0.0435 |
| AAACCCGG | 0.0318 |
| TCAGACAA | -0.173 |
| CAGATAAA | -0.0725 |
| GGGCGATA | -0.16 |
| ACCTAGCT | -0.226 |
| AATGGAGT | -0.31 |
| AAAATCAT | 0.0355 |
| ATGTCCTG | -0.132 |

| Sequence | PBM E-score |
| --- | --- |
| ATTGGATG | 0.052 |
| GATCTTTA | 0.0747 |
| AGGTCTTC | -0.211 |
| GACCACCA | -0.196 |
| TAGACAAA | -0.169 |
| CCAGGCCA | -0.254 |
| AATGTTCG | 0.123 |
| ATCTCTAG | -0.0781 |
| ATACTTTA | -0.0928 |
| CCGTCCCC | -0.288 |
| CTGCATAC | 0.117 |
| CGGTACCC | -0.0308 |
| CCGCATGC | -0.0538 |
| AACTGGCA | -0.0403 |
| CCCAGCAG | -0.0598 |
| AACTCAAT | -0.0526 |
| AACAATGG | -0.165 |
| GCGAATAC | 0.248 |
| CAAGTTAA | -0.0911 |
| TTCCCCAA | -0.193 |
| ACTATACT | 0.144 |
| CACGCTTC | -0.173 |
| CTGTTCAA | -0.144 |
| AAATAGCT | -0.0997 |
| GTGCGCTA | 0.0764 |

| Sequence | PBM E-score |
| --- | --- |
| CCCATTTC | -0.186 |
| AAACGACT | 0.437 |
| CTATCATA | 0.0505 |
| CAGCATCA | -0.102 |
| GCCATTTA | -0.111 |
| TATTTTGA | -0.252 |
| TCGTCCAA | -0.141 |
| CAAAGGCA | -0.225 |
| GCATGCCA | 0.0106 |
| ATGGGAAT | -0.088 |
| AGGAAGTG | -0.0138 |
| GTACGTGA | 0.324 |
| GCGTCTTA | -0.103 |
| GGCTGAAC | -0.0835 |
| ATGAAATG | -0.179 |
| CCGACACC | 0.0232 |
| ACGACGTA | 0.414 |
| GCGCAACA | -0.144 |
| CCGGTAAC | 0.0414 |
| AACTACCT | -0.177 |
| ATACGGTG | 0.388 |
| ACGATGCC | 0.211 |
| ATCAACAA | 0.173 |
| ATAAGTTG | -0.0932 |
| CTAAAGCC | -0.241 |

| Sequence | PBM E-score |
| --- | --- |
| ACTTGACG | -0.0404 |
| ACCCTCTG | -0.19 |
| AAGGCCTA | -0.251 |
| CTTTGCGA | 0.192 |
| CGTGTTAG | 0.174 |
| GCATGTTA | 0.106 |
| GAAAGGTC | -0.0495 |
| CTAGTTTA | -0.185 |
| CATTTACA | -0.145 |
| CGCGCTTA | 0.161 |
| AAAGTGGA | -0.184 |
| ACTCATAT | -0.109 |
| AGGACGAG | -0.166 |
| GGTTGATA | -0.0357 |
| GAGAGGCC | -0.2 |
| AATTGTGT | -0.00438 |
| ATTCACGC | 0.0499 |
| ATGATGCC | -0.0956 |
| GACTACGA | 0.26 |
| AACCGGGC | 0.0502 |
| GAAGCCCA | -0.156 |
| GATGTACC | 0.035 |
| CCGGTGCA | -0.219 |
| AGCTGTAA | -0.0964 |
| CTCATATC | -0.212 |

| Sequence | PBM E-score |
| --- | --- |
| CCTTTGAG | -0.152 |
| CCGGCAGG | -0.111 |
| TATGGTCA | 0.0603 |
| CCCTTCAG | -0.192 |
| CACCGATA | 0.0068 |
| ATCTCAGA | 0.00864 |
| AGTTATGG | -0.11 |
| GATAGACC | 0.0888 |
| CACCAGGC | -0.194 |
| ATAAAAAC | 0.0718 |
| TATAAGGA | 0.0687 |
| TAAGTAGA | -0.0232 |
| CACCTAAG | -0.0224 |
| ATTGAGCC | -0.188 |
| CCTCCTAA | -0.204 |
| CAGTTTGC | 0.0605 |
| CATAAAGG | -0.167 |
| CAGTCTCC | -0.157 |
| CTCGGTTC | 0.265 |
| AGAGTGCT | 0.0554 |
| AAGTATTC | -0.0359 |
| ATTTGGCC | -0.258 |
| CAGCTCAA | -0.147 |
| AACGCCTT | -0.139 |
| ATCATAAT | 0.131 |

| Sequence | PBM E-score |
| --- | --- |
| CGGCGTTA | 0.0563 |
| GGATATAC | 0.141 |
| ACAGCTCA | -0.208 |
| TACGTAGA | 0.133 |
| ATAGACAG | -0.0267 |
| CATTCCGC | -0.249 |
| AACTTGAA | -0.192 |
| CTTTCTGA | -0.287 |
| AAATCACC | -0.0791 |
| GTCAAAGA | 0.0722 |
| GCACAGGA | -0.0683 |
| AATCCGCT | -0.122 |
| CCCTGCGA | -0.0943 |
| CGTCGCAA | 0.16 |
| CGTCGGCA | 0.0927 |
| CGGCGTGA | -0.142 |
| AGGGTGCA | -0.273 |
| CCTACCAA | -0.184 |
| ACAATGTA | -0.00071 |
| TCACATAA | 0.0336 |
| ATCGTTAC | 0.264 |
| GCCCGAGC | -0.0385 |
